Results as given in the supplement of paper PMC10126150.
Sequences with one replicate were seen in a single cluster, so their values are uncertain.

System: ATP
Assay: switch fluorescence ratio, 500 uM ATP over buffer (Cy3 cluster intensity, sum of 5 cycles each) (fold (ratio)); higher = stronger signal-on switching upon ATP binding; sequences stand for … in TCGTCGGCAGCGTCAGATGTGTATAAGAGACAGTTTTTTTTTTTTTTTTTTTTTTTTT…TC
Conditions: aptamer strand: ATP DNA aptamer (quencher-CACCTGGGGGAGTATTGCGGAGGAAGG + anchor), 100 nM annealed; ATP concentration: 500 uM; one replicate
Outline: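 After annealing to 100 nM quencher-labelled ATP aptamer, Cy3-labelled switching-strand clusters on a modified Illumina MiSeq flow-cell were imaged in selection buffer. A second image followed after 15 min with 500 uM ATP at 22 °C, and five such buffer/ATP cycles were done, each separated by NaOH stripping and re-annealing. The fluorescence ratio, averaged per switch-domain sequence, is summed target-cycle over summed buffer-cycle Cy3 intensity per cluster, with clusters outside 100-1000 RFU excluded.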
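Further: ATP exposure 15 min at 22 °C before imaging.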

Sequence	switch fluorescence ratio
AAAAAAAAAC	0.971
AAAAAAATTA	0.92
AAAAAACCCG	1.07
AAAAAAGCCC	0.997
AAAAAAGTAA	1.08
AAAAAATAAT	1.06
AAAAACCGAG	1.11
AAAAACGCCT	1.08
AAAAACTGT	0.937
AAAAACTTCG	1.05
AAAAAGAAGT	0.979
AAAAAGCGTT	0.986
AAAAAGCTG	0.884
AAAAATAGGC	1.15
AAAAATCCGG	1.02
AAAAATTAGA	0.996
AAAACAGAAC	1.01
AAAACCGCAC	1.5
AAAACCGCTT	1.19
AAAACCTAGA	0.97
AAAACCTGCT	1.12
AAAACGCCTT	1.06
AAAACGGACG	1.06
AAAACGGGT	1.03
AAAAGACGT	1.03
AAAAGCACG	0.994

Sequence	switch fluorescence ratio
AAAAGGATAA	1.01
AAAAGGCCGA	1.02
AAAAGGGCCT	1.06
AAAAGGTAAG	1.02
AAAAGGTTGA	0.998
AAAAGTATGA	1.06
AAAAGTCGGT	0.997
AAAAGTTAA	1.05
AAAATAAGTA	0.985
AAAATATCTC	1.02
AAAATATGC	0.988
AAAATATGCA	0.943
AAAATCAGTA	0.974
AAAATCCCTG	1.02
AAAATCGTGG	0.984
AAAATGCGGC	1
AAAATGTAAC	1.09
AAAATTGTCG	1.04
AAACAAAAGG	0.985
AAACACGCA	1.15
AAACACTCTT	1.08
AAACAGGACA	1.02
AAACAGTTTC	0.991
AAACATGCGG	1
AAACCTAGTA	1.01
AAACCTTTCG	2.27

Sequence	switch fluorescence ratio
AAACGAAAG	1.03
AAACGCACAC	2.55
AAACGCCGGC	1.1
AAACGCCTGA	1.04
AAACGCTCCT	1.16
AAACGGAAGG	0.993
AAACGGATTG	1.01
AAACGGTAG	1.04
AAACGGTATC	1.04
AAACGTAGCT	1.04
AAACGTATTG	1.07
AAACGTTTAT	0.97
AAACTAAAAT	1
AAACTAGCCG	0.885
AAACTCAAAA	0.963
AAACTCGTAC	1.17
AAACTCGTTA	0.989
AAACTCGTTT	0.968
AAACTGATAA	1.02
AAACTGTACC	1.56
AAACTTTTTG	0.976
AAAGAACAGA	1.02
AAAGAAGTCG	1
AAAGACCAG	1.01
AAAGACTATC	1.07
AAAGAGGGAA	1.01

Sequence	switch fluorescence ratio
AAAGATGAAA	1.01
AAAGATGAGT	1.05
AAAGATGTGG	0.94
AAAGATTGGA	0.994
AAAGCAAACG	1.04
AAAGCAGCGT	0.985
AAAGCATTG	1.01
AAAGCCAGCT	1.03
AAAGCGGCCC	1.04
AAAGCGGTA	1.11
AAAGCTGACG	1.03
AAAGCTGCTG	1.03
AAAGGAACGT	1.06
AAAGGACCAT	1.12
AAAGGATAT	1
AAAGGATTGG	1.01
AAAGGCAAGA	2.53
AAAGGGAATG	1.01
AAAGGGATG	0.973
AAAGGGTCTC	0.986
AAAGGTCTAT	0.995
AAAGGTGTCG	1.09
AAAGGTTCGA	0.965
AAAGGTTTCA	1.01
AAAGTAAATT	1.01
AAAGTAATAT	1.07

Sequence	switch fluorescence ratio
AAAGTAATGC	1.87
AAAGTCCAGG	1.27
AAAGTCTATG	1
AAAGTCTTGG	0.97
AAAGTGAAGA	1
AAAGTGTAAC	1
AAAGTTCACA	0.969
AAAGTTTCCT	1.13
AAAGTTTTAG	1.03
AAATAAGGTA	0.999
AAATAATATG	1
AAATACATGT	1.03
AAATACATTC	0.966
AAATACGTGC	1.07
AAATAGGTGT	1.1
AAATATGCAA	1.08
AAATATTCTG	0.971
AAATCGATTT	1.06
AAATCGGAAG	0.935
AAATCGGATT	1.03
AAATCGGGCC	0.996
AAATGAAGCT	0.973
AAATGAGAAA	0.982
AAATGAGTG	0.944
AAATGATCCT	1.04
AAATGATTAT	0.988

Sequence	switch fluorescence ratio
AAATGCTCGA	1.02
AAATGGGCGA	1.01
AAATGGGGG	0.965
AAATGTACGT	1.01
AAATGTACTG	0.989
AAATGTCGA	1.02
AAATGTCGCA	0.998
AAATGTCGT	0.963
AAATTAAAAA	1.02
AAATTAAGTG	0.903
AAATTAGATA	0.987
AAATTATCCT	1.08
AAATTCCG	0.999
AAATTGGGGT	1.03
AAATTTATCG	0.999
AACAAAATC	0.995
AACAAAATCG	1.02
AACAAAGCCT	1.31
AACAAAGGCC	1.02
AACAAAGGTT	1.07
AACAAGAGT	0.997
AACAAGGTAA	1.01
AACAATTACT	1.24
AACACACTGG	1.28
AACACGGATC	1.01
AACAGACAAG	1.04

Sequence	switch fluorescence ratio
AACAGCAACG	1.03
AACAGGATAG	1
AACAGGATGG	0.992
AACAGGATTT	1
AACAGGGCCC	1.02
AACAGTACT	1.31
AACATCAGCA	0.995
AACATGAGGG	0.998
AACATTTATC	1.01
AACCAAAACT	1.07
AACCAACCTT	1.51
AACCACCATC	1.09
AACCACCCCC	1.78
AACCACTATC	1.08
AACCATCGGA	0.999
AACCCGAAAA	1.11
AACCCGGGTT	1.01
AACCGAAGCG	1.25
AACCGCCCTG	1.33
AACCGCGTAG	1.11
AACCGCGTGG	0.97
AACCGGGTAA	1.04
AACCGGGTGT	2.16
AACCGGTCTT	0.976
AACCGTCGTG	1.02
AACCGTTGCA	1.02

Sequence	switch fluorescence ratio
AACCGTTTCG	1.09
AACCTAACAG	1.06
AACCTATCGA	1.03
AACCTGGTGC	1.82
AACCTGTATC	1.52
AACCTGTGGG	0.998
AACCTTCGTT	1.32
AACGAAAGCG	1.06
AACGAAATAT	1.15
AACGAATAGC	1.04
AACGAGAGCT	1.04
AACGATAGCC	1.07
AACGATTAAA	1.07
AACGATTGTG	0.943
AACGATTTGA	0.998
AACGCACGAA	1.55
AACGCGTATT	1.05
AACGCTCGGC	1.01
AACGGCCTGA	1.03
